# Laboratory results reported in the supplement of paper PMC3334620.
# In all, about 33,000 sequences were measured (“E-score (-0.5 to 0.5)”: median about -0.017, highest 2% from about 0.3 on). The list shows a part of the results.
# Biological target: T1, Sut1 (UniProt P53032)
# T1 sequence: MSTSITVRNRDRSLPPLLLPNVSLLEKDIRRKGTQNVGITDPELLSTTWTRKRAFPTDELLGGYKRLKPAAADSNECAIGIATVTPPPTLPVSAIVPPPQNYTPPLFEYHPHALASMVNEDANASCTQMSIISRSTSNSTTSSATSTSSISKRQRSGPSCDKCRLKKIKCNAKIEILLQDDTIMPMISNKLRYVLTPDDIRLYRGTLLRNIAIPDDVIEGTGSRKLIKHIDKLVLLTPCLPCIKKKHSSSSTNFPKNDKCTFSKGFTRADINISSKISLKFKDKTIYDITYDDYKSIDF
# Assay: PBM E-score (8-mer binding enrichment) (E-score (-0.5 to 0.5)); higher = stronger / more preferred TF binding; most listed sequences are background and not binding sites
# Settings: protein concentration: 200 nM; construct: GST-full length
# In short: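 Masliner-normalised scans of fluorescent anti-GST signal were the basis for scoring. That signal came from GST-tagged yeast transcription factors applied at about 100-200 nM to double-stranded universal all-10-mer Agilent arrays on fresh or once-stripped slides. Each ungapped eight-base word, pooled with its reverse complement, received an E-score from the Universal PBM Analysis Suite.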
row,Sequence,PBM E-score
1,CCCAGATA,-0.106
2,ATTGACCG,0.0305
3,CAACGCGG,-0.0646
4,ACAGCCGC,-0.166
5,ACCATTCA,0.0202
6,ACTTTGTC,0.0345
7,CCAGCTCA,-0.182
8,GGGGCGTA,-0.167
9,CACTACCG,-0.127
10,CCGGCTGA,0.0215
11,TCGTACAA,0.156
12,AAGAAAAG,0.116
13,CCAAGCCA,-0.151
14,GAAGGCCA,-0.194
15,AATAACAA,0.121
16,CACTACTG,-0.204
17,CGTCTGAG,0.0162
18,CGATAAGA,0.169
19,ATAATTGC,0.106
20,CAACGTAA,-0.122
21,AGAGTTGG,0.0456
22,GGTGGCAA,-0.167
23,CATGTCTC,-0.0334
24,CAAGGTAC,-0.114
25,CGTTCATC,0.0239

row,Sequence,PBM E-score
1,ATACGTAC,0.0236
2,AAGAAGTG,-0.0202
3,ATTACAGA,0.139
4,AGGGGACA,-0.229
5,ATTGTAGG,0.193
6,CCCTGGAG,-0.353
7,CCAAATTC,-0.0238
8,CCCATAGC,-0.202
9,ATGACCCA,-0.0652
10,CTATATTA,0.276
11,CCTACCTC,-0.0462
12,CCCCCGTA,-0.292
13,GTCGGGAA,-0.169
14,CGGGCAAG,-0.114
15,TACTTCAA,0.261
16,CTACTGAA,-0.00485
17,CCATATTA,0.0603
18,GGCCTCTA,-0.274
19,TCCATGGA,0.0431
20,GAGATAGA,0.0347
21,ATCAAGTG,-0.0877
22,AAATGCAC,0.0769
23,TATGCCCA,-0.107
24,TAGTGTAA,0.169
25,CCCATGTA,0.00137

row,Sequence,PBM E-score
1,CGCGAGAC,-0.0976
2,AGGCATGC,0.0551
3,AAACCCGA,0.198
4,AAGGAAGA,0.0224
5,ACCTGCTG,-0.0362
6,AACTTCAG,-0.0466
7,AGGAGTTC,0.0585
8,CGCAAACC,-0.0996
9,GTGATTGA,0.186
10,GGTTGAAA,0.133
11,AAGTGTAC,-0.164
12,CCTCTAAG,-0.212
13,CTGGCCTC,-0.0756
14,GGGCGTAA,-0.148
15,ACTCGACT,-0.0903
16,GACTTCTA,-0.0229
17,AGGCAGAC,-0.224
18,AGTGAAAT,0.0708
19,CCTAAGTC,-0.156
20,CCTGAACA,-0.158
21,GAGCCCAC,-0.234
22,ACGGTGGA,0.0642
23,AATCTCCA,0.0699
24,CAAAGTAG,-0.0204
25,CGGGGGAC,-0.103

row,Sequence,PBM E-score
1,ACTATAGG,-0.172
2,CCCTGAGC,-0.148
3,AGCTTATA,0.0992
4,ACTTCACC,0.0672
5,ACCATCAG,-0.188
6,CATTGGAA,0.0951
7,GGCGATAC,-0.0854
8,TCGCAAAA,0.0928
9,TCGCTCAA,0.0956
10,TCGCGACA,-0.0571
11,AAGCATGA,0.106
12,CTTACCGA,0.123
13,CCAGGGGA,-0.196
14,CTGGGATA,0.0289
15,AATGATGA,0.12
16,TCGTTTAA,0.168
17,AGAATTTA,0.202
18,AGCCACCA,-0.203
19,ATATATAG,0.329
20,TCTAATAA,0.173
21,ACGTATGC,-0.0391
22,ATTGAGGA,0.0322
23,AAGGGTGG,-0.249
24,GTTCTTTA,0.252
25,ACACAGTG,0.0181

row,Sequence,PBM E-score
1,TAAGAACA,0.221
2,GATCAACC,0.0228
3,AGCAACGA,-0.153
4,ACCCTGAA,-0.206
5,ATTCATGC,-0.0101
6,GTTCGCTA,-0.0747
7,GAGCAGGA,0.0159
8,GGGGCACA,-0.346
9,GGCAAGAA,-0.0169
10,GATACGCA,-0.141
11,ATAGGGAC,-0.138
12,AAAGCCTG,-0.12
13,GCGTTGCA,0.0322
14,TAGGCCTA,-0.182
15,GCCTCGAA,0.115
16,ACTGGAGG,-0.0479
17,AGATAGTG,0.06
18,GCCGCGCC,-0.197
19,GCTACCAA,0.0131
20,ACTCTGGA,-0.0358
21,CTGAATTC,-0.102
22,CCTAGAAG,-0.162
23,ATGTTCCA,-0.0194
24,AGGCTTCA,-0.131
25,GCCAAGCC,-0.0191

row,Sequence,PBM E-score
1,CCACCACG,-0.0414
2,AACCTCAC,-0.0998
3,CCAGTCTC,-0.102
4,AATGTGAA,0.246
5,ACGGATTA,0.0513
6,TCGTACCA,-0.0419
7,ACTGCGCT,-0.247
8,ATATCATC,0.18
9,CTAAACCA,0.00733
10,AGCTAACT,0.0552
11,ACAGTATC,0.0445
12,CAAGATTC,0.235
13,CTGCTTGA,-0.153
14,ACGCTTGG,-0.249
15,ATATATGC,0.0624
16,AGATAGAC,-0.144
17,GAATCAGA,0.0352
18,CGCGCATC,-0.0907
19,ACGCAGAT,0.118
20,CTCCTTCC,-0.22
21,ATCTGGGA,-0.168
22,CAAGGGCG,-0.18
23,GCTATGGA,0.0633
24,AGGGAACT,-0.0607
25,GACGGACC,0.162

row,Sequence,PBM E-score
1,ATGAATAA,0.146
2,AGTCGGAA,0.243
3,TCCAGCAA,-0.153
4,GGGTGACA,-0.336
5,AGCAGAAT,-0.0512
6,CGGTTTAG,-0.0675
7,AATGATTG,0.164
8,AGGTTCGA,0.0769
9,ACAAAGCC,0.0373
10,TAAACACA,0.128
11,AGGATCCG,-0.201
12,ATGTCAAC,0.102
13,CCTATTCC,0.0467
14,GCTCTAAA,-0.0761
15,ATAAAAGA,0.0494
16,GCGTCGGA,0.229
17,AGATCGGG,0.0511
18,AATGGTGG,-0.119
19,ACTGTCGG,-0.215
20,AATGAAAA,0.178
21,ATCACGTC,-0.154
22,AGACTGTA,-0.0592
